# Measured values reported in PubChem BioAssay AID588591 (National Center for Advancing Translational Sciences (NCATS), 2011).
# Hit rate of the full screen: of about 390,000 compounds, about 4,700 (1.2%) were called active. Roughly 4% stayed inconclusive and do not appear here. Calls follow the shape of the dose curve; as a rule, active = well fitted inhibition curve with a large enough effect; inconclusive = small, poorly fitted or top-dose-only effect, or another doubt; inactive = no such curve, though single readings can be large or run the other way. This is a selection; strong and weak results do not stand in their true shares. The source holds several records for some structures; these can differ, active in one and inactive in another.
# Biological target: DNA polymerase eta (Homo sapiens) (UniProt Q9Y253)
# Chain of UniProt Q9Y253 (Q9Y253 whole entry, looked up): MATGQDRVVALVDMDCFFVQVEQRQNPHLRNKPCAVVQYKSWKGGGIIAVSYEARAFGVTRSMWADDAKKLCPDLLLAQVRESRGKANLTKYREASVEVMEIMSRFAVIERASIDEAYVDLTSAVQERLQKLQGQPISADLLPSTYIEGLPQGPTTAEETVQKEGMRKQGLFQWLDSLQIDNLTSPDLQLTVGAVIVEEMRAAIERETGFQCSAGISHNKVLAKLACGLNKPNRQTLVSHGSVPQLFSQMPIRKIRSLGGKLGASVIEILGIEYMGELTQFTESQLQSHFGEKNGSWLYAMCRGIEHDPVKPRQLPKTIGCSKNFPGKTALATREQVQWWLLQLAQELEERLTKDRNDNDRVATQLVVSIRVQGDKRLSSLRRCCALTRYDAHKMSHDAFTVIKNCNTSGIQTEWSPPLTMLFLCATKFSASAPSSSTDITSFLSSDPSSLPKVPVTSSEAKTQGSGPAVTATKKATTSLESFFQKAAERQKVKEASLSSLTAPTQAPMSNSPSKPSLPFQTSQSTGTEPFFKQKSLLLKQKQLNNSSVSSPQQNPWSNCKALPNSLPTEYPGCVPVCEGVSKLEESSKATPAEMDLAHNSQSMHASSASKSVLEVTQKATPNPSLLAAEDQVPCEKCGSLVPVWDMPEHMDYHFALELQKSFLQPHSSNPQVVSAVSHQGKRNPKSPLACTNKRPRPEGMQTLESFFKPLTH
# Assay: qHTS for Inhibitors of Polymerase Eta
# Conditions: recombinant Pol eta, fluorescent DNA replication assay; series mostly up to 114 µM; activity change, negative = inhibition: at the top concentration
# In short: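 Fluorescent replication assay: 50 nM final substrate added after a 15 min room-temperature compound preincubation with 10 nM enzyme. Signal taken at 0 min and again at 10 min.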
# % is scaled to controls: 0 for no effect and ±100 for the full control effect; potency is read from the fitted curve at half-maximal effect.
SMILES,Potency,"activity change, negative = inhibition"
Oc1ccc(C2CNCCc3c2cc(O)c(O)c3Cl)cc1 (stereo not drawn),inactive,–
O=c1c(C=Nc2cccc(C(F)(F)F)c2)c[nH]n1-c1cccc(Cl)n1,active: 89.1 µM,–
O=C1N=C(N2CCN(c3ccccc3)CC2)S/C1=C/c1ccco1,–,inactive: -16%
NC(=O)CSc1oc(-c2ccco2)nc1S(=O)(=O)c1ccc(Cl)cc1,–,inactive: -20.7%
CCCc1nc2c(=O)n(C)c(=O)nc-2n(C)n1,active: 0.891 µM,–
Cc1ccc(N=C2NC(=O)/C(=C/c3cccs3)S2)cc1C,–,inactive: -14.9%
CCc1ccc(NC(=O)CCn2nc(C)c(S(=O)(=O)N3CCCCC3)c2C)cc1,–,inactive: -21.9%
C=CC[C@H](CC(=O)N(CCO)Cc1ccccc1)C(=O)N[C@@H](COC(=O)[C@@H](CC=C)Cc1ccc(F)cc1)Cc1ccccc1,–,inactive: -28.9%
Cc1cc(S(=O)(=O)N2CCN(C(=O)CCC(=O)N3CCOCC3)CC2)ccc1Br,–,inactive: 39.9%
C[C@H](NC(=O)[C@@H]1Cc2ccccc2CN1C(=O)OC(C)(C)C)C(=O)NCc1ccco1,–,inactive: -7.85%
COc1ccccc1/C=C/C=N/n1c(-c2ccc(Cl)cc2)n[nH]c1=S,–,inactive: -7.63%
COc1cc(/C=N/NC(N)=O)cc([N+](=O)[O-])c1O,active: 50.1 µM,–
COc1ccc(C(=O)NNC(=O)Cc2coc3cc(OC)ccc23)cc1,active: 20 µM,–
CCn1c(SCC(=O)Nc2ccccc2)nnc1-c1cccs1,–,inactive: 43.3%
CCC(C)Sc1ccc([C@@H]2[C@@H]3C(=O)N(CC)C(=O)[C@@H]3[C@]3(C(=O)OC)CCCCN23)cc1 (stereo partly drawn),–,inactive: -11.7%
CC(=O)OCC1=C(C(=O)O)N2C(=O)C(NC(=O)COc3ccc(F)cc3)C2SC1 (stereo not drawn),active: 8.91 µM,–
CN(C)c1ccc(/C=C(/C#N)C(=O)Nc2nc3c(s2)CCN(Cc2ccccc2)C3)cc1,–,inactive: -13.6%
C[C@@H]1CN([C@@H](C)CO)C(=O)CCCn2nncc2CO[C@@H]1CN(C)C(=O)Nc1cccc(Oc2ccccn2)c1,–,inactive: -14.3%
c1ccc(CSc2nnc3ccc(-c4ccco4)nn23)nc1,–,inactive: 33.9%
CCCCN(CC)CCCNC(=O)c1cn(CC(C)C)c(=O)c2c1c1ccccc1n2C,–,inactive: -8.47%

SMILES,Potency,"activity change, negative = inhibition"
COc1ccc(S(=O)(=O)N2CCCC2c2cccs2)cc1 (stereo not drawn),–,inactive: 22.6%
CC(=O)c1cc2c(cc1NC(=O)c1c(C)nn(-c3ccc(C)cc3)c1-n1cccc1)OCO2,–,inactive: 18%
COc1ccc(C(=O)Cn2c(N3CCCCC3)nc3c2c(=O)n(C)c(=O)n3C)cc1OC,–,inactive: 31.9%
Cc1ccc(NC(=O)CN2C(=O)N/C(=C\c3ccco3)C2=O)cc1,–,inactive: -6.85%
O=C(NC1CCCc2ccccc21)c1ccc2c(c1)sc1nc(-c3ccc(F)cc3)cn12 (stereo not drawn),–,inactive: 23%
CC1=NN(c2ccc(Cl)c(C(=O)O)c2)C(=O)/C1=C/c1ccc(-c2ccccc2[N+](=O)[O-])o1,active: 20 µM,–
Cc1cc(Br)ccc1OCc1nc(-c2cccnc2)no1,–,inactive: 2.44%
COc1cc(NC(=O)Cc2cccs2)cc(OC)c1,–,inactive: 29.9%
CCc1cccc(NS(=O)(=O)c2c(C)nc3sc(CC)nn3c2=O)c1,inactive,–
N#C/C(=C\c1coc2ccc(O)cc2c1=O)C(=O)Nc1nc2ccccc2s1,active: 3.55 µM,–
C/C(N)=C(/C#N)C(=O)CSc1nc2ccccc2[nH]1,active: 50.1 µM,–
N#CC(=C(O)COC(=O)c1ccc2c(c1)OCCO2)c1nc2ccccc2[nH]1,–,inactive: -9.58%
O=C(COc1ccccc1[N+](=O)[O-])OCC(=O)c1ccc(Br)s1,active: 79.4 µM,–
C/C(=N\Nc1cccc(C(=O)O)c1)c1ccc2c(c1)Nc1ccccc1S2,active: 20 µM,–
CNC(=O)c1cc(Nc2nnc(-c3ccc(O)cc3)c3ccccc23)ccc1OC,–,inactive: 0.653%
Oc1cc(O)c2c(c1)O[C@H](c1ccc(O)c(O)c1)[C@@H](O)C2,–,inactive: -6.13%
CCOC(=O)c1ccc(N2CCN(c3ccc(F)cc3)CC2)c(NC(=O)Nc2cccc(OC)c2)c1,–,inactive: -9.48%
COc1cc(NC(=O)Cn2ccn(Cc3ccccc3OC)c(=O)c2=O)cc(OC)c1,–,inactive: 19.2%
Cc1cccc(Cn2c(C)c(C)c3cc(C(=O)NCc4ccco4)ccc32)c1,active: 79.4 µM,–
CCCCN(CCCC)CCNC(=O)c1cn(CC)c2ccc(S(=O)(=O)N3CCc4ccccc4C3)cc2c1=O,–,inactive: -26.6%

SMILES,Potency,"activity change, negative = inhibition"
C[C@H](/C=C/[C@@]1(O)[C@H](C)C[C@H](O)CC1(C)C)O[C@@H]1O[C@H](CO)[C@@H](O)[C@H](O)[C@H]1O,–,inactive: -19%
Cc1ccc(NC(=O)C(C)OC(=O)c2ccc(Cl)nc2)cc1S(=O)(=O)N1CCOCC1 (stereo not drawn),active: 20 µM,–
CCCN(CCC)CCNC(=O)c1cc2c(-c3ccc(Cl)cc3)nn(C)c2s1,inactive,–
CCc1ccccc1NC(=O)Cc1cn(C)c2ccccc12,–,inactive: -9.1%
O=C(CSc1nnc(-c2ccccc2)o1)c1nnc(-c2ccccc2)o1,active: 20 µM,–
CCCCCCN1C[C@@H](n2cc(C3CC3)nn2)[C@H](O)C[C@@H]1c1ccc(Cl)cc1,–,inactive: -19.5%
CC(C)Cc1nc2sc3c(SCC(N)=O)ncnc3c2c2c1CCC2,–,inactive: 39.6%
C[C@@H]1CN([C@@H](C)CO)C(=O)CCCn2nncc2CO[C@H]1CN(C)C(=O)Nc1cccc(Oc2ccccn2)c1,–,inactive: -6.87%
CC(/C=N/Nc1ccc2nncn2n1)=C\c1ccccc1,active: 79.4 µM,–
Cc1noc(C)c1S(=O)(=O)N1CCC(C(=O)N2CCN(c3ccccc3Cl)CC2)CC1,–,inactive: -1.66%
O=C(C1CCCCC1)N1C[C@H](n2cc(-c3ccc(F)cc3)nn2)[C@@H](O)C[C@@H]1c1ccccc1,–,inactive: -1.92%
O=c1c(O[C@@H]2O[C@H](CO)[C@@H](O)[C@H](O)[C@H]2O)c(-c2ccc(O)cc2)oc2cc(O)cc(O)c12,–,inactive: 4.16%
CC(=O)C[C@@H](O)CC(=O)[C@H]1OC(=O)[C@H](C)C/C=C\Cc2ccccc21,–,inactive: -7.68%
CSc1oc(-c2cccs2)nc1S(=O)(=O)c1ccccc1,–,inactive: 31.1%
N#C/C(=C(/O)CCl)c1nc2c(s1)CCc1ccccc1-2,active: 35.5 µM,–
COc1ccc(NC2c3ccccc3C(=O)N2Cc2ccccc2Cl)cc1OC (stereo not drawn),–,inactive: 46.6%
CCC(=O)OC1(C)C(=O)C2=COC(c3ccc(OC)cc3)=CC2=C(Br)C1=O (stereo not drawn),active: 44.7 µM,–
O=C(OCc1cn([C@H]2CN(C(=O)C3CCCCC3)[C@@H](c3ccc(Cl)cc3)C[C@@H]2O)nn1)c1ccccc1,–,inactive: -31.2%
